# Among all 310,000 compounds or so, about 18,000 (5.8%) were called active. The inconclusive results got no clear call from the source; some entries with a clear call stand among them for comparison. The call rests on the fitted dose curve; in most records, active means well fitted inhibition curve with a large enough effect; inconclusive means small, poorly fitted or top-dose-only effect, or another doubt; inactive means no such curve, though single readings can be large or run the other way. Potencies of inconclusive entries are left out as doubtful fits.
# Assay: Primary qHTS for delayed death inhibitors of the malarial parasite plastid, 48 hour incubation
# Conditions: P. falciparum luciferase growth in erythrocytes; series mostly up to 28.7 µM
# Summary of the method: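 First compound was added to culture medium, then infected red cells at 0.1% parasitemia and 2% hematocrit (final). After incubation at 37 C under 5% CO2, luciferase detection reagent was dispensed and light output recorded.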
# Potency means the concentration at half of the fitted maximal effect; tags describe the fitted curve by direction and shape.
row,SMILES,Potency
1,CN1C(C(=O)Nc2ccccn2)C(=O)c2sc(Cl)cc2S1(=O)=O (configuration not stated),"inconclusive [inhibitor, single point]"
2,CO/N=C(/C(=O)N[C@@H]1C(=O)N2C(C(=O)O)=C(COC(N)=O)CS[C@H]12)c1ccco1,active: 15.1 µM
3,O=C(Nc1cccc(-n2cnnn2)c1)c1cccc(Cl)c1,inactive
4,CS(=O)(=O)c1ccc(NC(=O)c2cccc(-n3cnnn3)c2)cc1,"inconclusive [inhibitor, single point]"
5,CCOC(=O)C1CCCN(C(=O)Cn2nc(C)c3c(C)n(-c4ccccc4)nc3c2=O)C1 (configuration not stated),"inconclusive [inhibitor, partial curve]"
6,Cc1ccc(CNC(=O)CNS(=O)(=O)c2cccc3nsnc23)cc1,inactive
7,CC(=O)Nc1nc2ccc(-c3nc4ccccc4o3)cc2s1,inactive
8,CC(C)CCOC(=O)C1C2C=CC3(CN(Cc4cccs4)C(=O)C13)O2 (configuration not stated),"inconclusive [inhibitor, partial curve, poor fit]"
9,Cc1ccc(C(=O)Nc2ccccc2-c2ccccc2)cc1S(=O)(=O)Nc1cccc(C)c1C,"inconclusive [inhibitor, partial curve]"
10,O=S(=O)(CCSc1nc2ccccc2s1)c1nc2ccccc2s1,active: 11.7 µM
11,Nc1nc(Nc2cccc(F)c2)nc(N2CCOCC2)c1[N+](=O)[O-],"inconclusive [inhibitor, single point]"
12,COc1nc(N=C(N)N)nc2ccc(C)cc12,active: 2.62 µM
13,CCOC(=O)C(=CNc1cscc1S(=O)(=O)C(C)C)C(=O)OCC,"inconclusive [inhibitor, single point]"
14,O=C(NC1CC1)c1ccc(COc2ccc(F)cc2)o1,"inconclusive [inhibitor, full curve, poor fit]"
15,Cn1cc(CN2CCCC(CO)(Cc3ccccc3)C2)cn1 (configuration not stated),inactive
16,COc1ccc(N(C)S(=O)(=O)c2cccc(C(=O)OC(C)C(=O)NC3CCCCC3C)c2)cc1 (configuration not stated),active: 11.7 µM
17,CCN(CC)CCNC(=S)Nc1ccc2nc(N3CCCC3)cc(C)c2c1,"inconclusive [inhibitor, full curve]"
18,CCc1nnc(NC(=O)C2=CCN(S(=O)(=O)c3ccccc3)CC2)s1,"inconclusive [inhibitor, partial curve, poor fit]"
19,CCC(=O)n1nc(NCc2ccccc2OC)nc1NCc1ccccc1OC,"inconclusive [inhibitor, single point]"
20,COc1ccccc1-n1c(SCC(=O)N2CCOCC2)nc(O)cc1=O,"inconclusive [inhibitor, partial curve, poor fit]"
21,COc1ccc(C(=O)NCCSCc2ccc(C)cc2)cc1,"inconclusive [inhibitor, partial curve]"
22,CCOc1cc(/C=C(\C#N)C(=O)Nc2ccccc2[N+](=O)[O-])ccc1OCc1cccc2ccccc12,inactive
23,Cc1cc2nc3s/c(=C/c4ccc(-c5ccccc5C(=O)O)o4)c(=O)n3c2cc1C,inactive
24,O=C(Nc1ccc(Cl)c(S(=O)(=O)N2CCOCC2)c1)C1CCC1,"inconclusive [inhibitor, single point]"

row,SMILES,Potency
1,CCc1nnc(NC(=O)CSc2nc(C)c3c(c2C#N)CCCC3)s1,inactive
2,COc1cc(/C=N/Nc2ncnc3sc4c(c23)CCC4)ccc1O,"inconclusive [inhibitor, single point]"
3,O=c1[nH]c(C2CCN(S(=O)(=O)c3ccc(S(=O)(=O)NC4CC4)cc3)CC2)nc2c1nnn2Cc1ccccc1,active: 3.7 µM
4,Cc1ccc(CNC(=O)C2c3ccccc3C(=O)N3CCc4ccccc4C23)o1 (configuration not stated),inactive
5,NNC(=O)c1[nH]c(-c2ccccc2)cc1-c1ccccc1,"inconclusive [inhibitor, single point]"
6,Cc1ccc(-c2[nH]c(-c3ccc(Cl)cc3)nc2SCC(=O)NCC2CCCO2)cc1 (configuration not stated),"inconclusive [inhibitor, single point]"
7,CSc1ncccc1C(=O)NC1CC(C)(C)Cc2c1cnn2-c1ccccc1C (configuration not stated),inactive
8,O=C(/C=C/c1cccnc1)c1ccc(NC(=O)c2cccc(Br)c2)cc1,"inconclusive [inhibitor, single point]"
9,O=C(COc1cccc(NC(=O)c2cccc([N+](=O)[O-])c2)c1)c1ccc(F)cc1,"inconclusive [inhibitor, single point]"
10,Cc1cccc(NC(=O)C2(c3ccccc3)CC2(Cl)Cl)c1 (configuration not stated),"inconclusive [inhibitor, full curve, poor fit]"
11,Cc1ccccc1Nc1cc2ccccc2c(=O)[nH]1,"inconclusive [inhibitor, single point]"
12,Cc1c(C(=O)N2CCN(S(=O)(=O)c3ccccc3F)CC2)oc2c(Cl)cccc12,active: 10.4 µM
13,O=S(=O)(c1ccc(N2CCN(S(=O)(=O)c3ccc4c(c3)OCCO4)CC2)nc1)N1CCCC1,active: 13.1 µM
14,Cc1cccn2c(=O)c(C=O)c(N3CCC4(CC3)OCCO4)nc12,inactive
15,CCn1c(SCC(=O)Nc2ccc(Br)cc2)nc2sc3c(c2c1=O)CCN(C)C3,"inconclusive [inhibitor, full curve]"
16,O=C(c1ccc(-c2nnc(Nc3cccc(Cl)c3)c3ccccc23)cc1)N1C[C@H]2C[C@H](C1)c1cccc(=O)n1C2,active: 13.1 µM
17,COc1ccc(S(=O)(=O)n2nc(C)c(S(=O)(=O)N3CCOCC3)c2C)cc1,inactive
18,O=c1[nH]c(CN2CCN(c3ncccn3)CC2)nc2c(Br)cc(Br)cc12,"inconclusive [inhibitor, partial curve]"
19,CC(N)C(=O)c1ccco1 (configuration not stated),"inconclusive [inhibitor, full curve, poor fit]"
20,COc1ccc(CCNC(=O)C(=O)NCc2ccccn2)cc1,inactive
21,COc1cc2cc(C(c3nnnn3C(C)(C)C)N3CCc4ccccc4C3)c(=O)[nH]c2cc1OC (configuration not stated),"inconclusive [inhibitor, single point]"
22,COCCN(C(=O)COC(=O)CCc1ccccc1)c1c(N)n(Cc2ccccc2)c(=O)[nH]c1=O,inactive
23,O=C(N/N=C/c1ccc(O)cc1O)c1ccncc1,"inconclusive [inhibitor, partial curve, poor fit]"
24,O=C(Cc1ccccc1)Nc1ccnn1C1CCN(Cc2nccs2)CC1,inactive

row,SMILES,Potency
1,CC(CN1CCOCC1)OC(=O)c1ccc(Br)cc1 (configuration not stated),"inconclusive [inhibitor, single point]"
2,CC(C)(CNC(=O)C1c2ccccc2-c2ccccc21)N1CCOCC1,"inconclusive [inhibitor, partial curve]"
3,CNC(=S)N(Cc1ccc(OC)cc1)Cc1cc2ccc(C)cc2[nH]c1=O,inactive
4,Oc1ccc(-c2cn3cc(C(F)(F)F)ccc3n2)cc1,inactive
5,COc1ccc(OC)c(S(=O)(=O)N(C)CC(=O)N2CCOCC2)c1,"inconclusive [inhibitor, partial curve, poor fit]"
6,CCN(CC)S(=O)(=O)c1ccc(N2CCOCC2)c(NC(=O)CCOc2ccccc2)c1,active: 9.28 µM
7,Cc1ccc([N+](=O)[O-])cc1N=C(c1cccc([N+](=O)[O-])c1)N1CCOCC1,"inconclusive [inhibitor, partial curve]"
8,O=C(CN1CCN(c2ccccn2)CC1)Nc1cc(C(F)(F)F)ccc1Cl,active: 9.28 µM
9,CN(C)c1nc(NCc2ccccc2)nc(N/N=C/c2ccc(Br)cc2)n1,active: 13.1 µM
10,CCN(CC)c1cc(C(F)(F)F)nc(-c2ccccn2)n1,"inconclusive [inhibitor, partial curve, poor fit]"
11,O=C(COC(=O)c1ccccc1C(=O)N1CCN(c2ccccc2)CC1)Nc1ccccc1,active: 4.15 µM
12,COc1cc2c(cc1O)C[C@H]1NCCc3cc4c(c-2c31)OCO4,"inconclusive [inhibitor, single point]"
13,COc1cccc(NC(=O)Nc2cc(C(=O)NCC3CCCO3)ccc2N2CC3CC(C2)c2cccc(=O)n2C3)c1 (configuration not stated),"inconclusive [inhibitor, partial curve]"
14,Cc1nc2cc(N3CCN(C)CC3)c(NC(=O)Cc3ccccc3)cc2c(=O)n1Cc1ccccc1,active: 10.4 µM
15,Cc1nnc(SCC(=O)N2CCC(C(N)=O)CC2)s1,inactive
16,O=C(O)CSCc1cnn(-c2ccccc2)c1-n1cccc1,active: 10.4 µM
17,O=C(CCn1c(=S)oc2ccccc21)Nc1ccccc1F,inactive
18,CC(Oc1ccccc1)C(=O)Nc1ccc(NC(=O)c2ccccc2)cc1 (configuration not stated),"inconclusive [inhibitor, single point]"
19,CC(=O)c1ccc(N(CC(=O)NC2CCCC2)C(=O)CCC(=O)Nc2cc(C)on2)cc1,inactive
20,CCOc1ccc(NS(=O)(=O)c2cccc(C(=O)NCC3(N(C)C)CCCCC3)c2)cc1,"inconclusive [inhibitor, single point]"
21,Cc1ccc(C2(c3noc(CN(C)CC4COCCO4)n3)CCCC2)cc1 (configuration not stated),"inconclusive [inhibitor, partial curve]"
22,C=CCN1CC(O)=C(c2nc3ccccc3[nH]2)C1=N,inactive
23,Clc1ccc(C[n+]2cc(-c3ccccc3)n3c2CCC3)cc1,active: 1.04 µM
24,CCCCNC(=O)Oc1cc(CCl)on1,"inconclusive [inhibitor, full curve, poor fit]"
